Experimental data: patent publication US20250361279A1 (Hoffmann-La Roche, published 2025)

Columns and labels:
[1] = target: T1, human IL7Rα-IL2Rg-Fc (P1AF4984) (human, UniProt P16871 21-239; P31785 23-262, limits assumed); assay: SPR Biacore T200, sample captured by anti-PGLALA, IL7Ra-IL2Rg-Fc injected; sample stressed 2 w/pH 6.0, +40°C
T1 construct: In-house heterodimeric Fc fusion; also called IL7Ra-IL2Rg-Fc; human IL7Ralpha-IL2Rgamma-Fc heterodimer; not shown: Fc part
T1 sequence (looked up) 1: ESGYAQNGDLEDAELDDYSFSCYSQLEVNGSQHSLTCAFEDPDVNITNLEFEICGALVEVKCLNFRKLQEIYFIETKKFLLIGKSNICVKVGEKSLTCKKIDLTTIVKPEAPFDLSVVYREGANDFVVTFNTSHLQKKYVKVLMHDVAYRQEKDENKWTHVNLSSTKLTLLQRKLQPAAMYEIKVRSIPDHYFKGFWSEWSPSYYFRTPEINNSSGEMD
T1 sequence (looked up) 2: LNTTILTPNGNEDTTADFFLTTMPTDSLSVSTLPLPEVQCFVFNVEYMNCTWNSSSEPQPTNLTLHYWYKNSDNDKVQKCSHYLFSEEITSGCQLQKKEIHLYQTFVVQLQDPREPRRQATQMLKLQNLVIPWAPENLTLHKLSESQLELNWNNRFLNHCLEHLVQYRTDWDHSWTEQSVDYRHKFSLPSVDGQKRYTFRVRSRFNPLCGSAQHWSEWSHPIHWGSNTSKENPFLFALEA

[2] = target: T2, human huPD1-ECD_Fc (P1AD9704) (human, UniProt Q15116 fragment); assay: SPR Biacore T200, sample captured by anti-PGLALA, huPD1-ECD-Fc injected; sample stressed 2 w/pH 7.4 +37°C
T2 construct: extracellular domain; In-house reagent; not shown: Fc part

[3] = target: human PD-1 on activated CD4 T cells (human, UniProt Q15116 25-288); assay: cell-based or functional assay
[4] = target: T3, IL-7 receptor (IL-7R alpha chain and common gamma chain) on human T cells (human, UniProt P16871 21-459; P31785 23-369); assay: cell-based or functional assay
T3 sequence (looked up) 1: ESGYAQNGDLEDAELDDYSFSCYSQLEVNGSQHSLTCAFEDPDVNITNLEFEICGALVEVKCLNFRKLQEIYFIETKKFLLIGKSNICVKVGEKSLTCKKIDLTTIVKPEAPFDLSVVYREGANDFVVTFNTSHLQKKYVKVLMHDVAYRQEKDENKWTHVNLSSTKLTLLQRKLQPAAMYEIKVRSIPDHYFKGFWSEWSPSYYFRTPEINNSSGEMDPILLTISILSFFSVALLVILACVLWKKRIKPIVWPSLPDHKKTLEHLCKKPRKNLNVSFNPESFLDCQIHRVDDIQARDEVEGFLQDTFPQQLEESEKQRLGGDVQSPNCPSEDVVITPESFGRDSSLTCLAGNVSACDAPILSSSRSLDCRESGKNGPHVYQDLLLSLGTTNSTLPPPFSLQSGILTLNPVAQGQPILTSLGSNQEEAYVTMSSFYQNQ
T3 sequence (looked up) 2: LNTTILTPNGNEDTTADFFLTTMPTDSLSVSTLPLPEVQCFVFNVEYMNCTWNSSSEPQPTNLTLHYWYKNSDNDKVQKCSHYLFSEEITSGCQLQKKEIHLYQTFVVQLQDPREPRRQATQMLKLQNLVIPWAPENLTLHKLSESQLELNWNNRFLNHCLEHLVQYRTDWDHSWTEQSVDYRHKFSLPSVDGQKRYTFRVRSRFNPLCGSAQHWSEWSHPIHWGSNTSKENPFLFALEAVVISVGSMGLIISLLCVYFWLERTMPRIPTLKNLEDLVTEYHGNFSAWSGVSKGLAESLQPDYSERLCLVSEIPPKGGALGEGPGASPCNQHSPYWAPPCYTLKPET

[5] = target: T2, human huPD1-ECD_Fc (P1AD9704); assay: SPR Biacore T200, sample captured by anti-PGLALA, huPD1-ECD-Fc injected; sample stressed 2 w/pH 6.0, +40°C
[6] = target: T3, IL-7 receptor (IL-7R alpha chain and …); assay: flow cytometry, fresh PBMCs, bystander (PD-1- TCF-1-) CD4 T cells
[7] = target: T1, human IL7Rα-IL2Rg-Fc (P1AF4984); assay: SPR Biacore T200, sample captured by anti-PGLALA, IL7Ra-IL2Rg-Fc injected; sample 2 w/pH 6.0, -80°C (reference)

B1: P1AI5587 (PD1-IL7v2.6, fully glycosylated; de-risked PD1 binder FV020519; IL7 E13K, G85E; (G2SG2)3 linker) (other)
light: DIVMTQSPDSLAVSLGERATINCKASESVDTSDNSFIHWYQQKPGQSPKLLIYRASTLESGVPDRFSGSGSGTDFTLTISSLQAEDVAVYYCQQNYDVPWTFGQGTKVEIKRTVAAPSVFIFPPSDEQLKSGTASVVCLLNNFYPREAKVQWKVDNALQSGNSQESVTEQDSKDSTYSLSSTLTLSKADYEKHKVYACEVTHQGLSSPVTKSFNRGEC
heavy 1: EVQLLESGGGLVQPGGSLRLSCAASGFSFSSYTMSWVRQAPGKGLEWVSAISGGGRDIYYPDSVKGRFTISRDNSKNTLYLQMNSLRAEDTAVYYCVLLTGRVYFALDSWGQGTLVTVSSASTKGPSVFPLAPSSKSTSGGTAALGCLVKDYFPEPVTVSWNSGALTSGVHTFPAVLQSSGLYSLSSVVTVPSSSLGTQTYICNVNHKPSNTKVDKKVEPKSCDKTHTCPPCPAPEAAGGPSVFLFPPKPKDTLMISRTPEVTCVVVDVSHEDPEVKFNWYVDGVEVHNAKTKPREEQYNSTYRVVSVLTVLHQDWLNGKEYKCKVSNKALGAPIEKTISKAKGQPREPQVCTLPPSRDELTKNQVSLSCAVKGFYPSDIAVEWESNGQPENNYKTTPPVLDSDGSFFLVSKLTVDKSRWQQGNVFSCSVMHEALHNHYTQKSLSLSPG
heavy 2: EVQLLESGGGLVQPGGSLRLSCAASGFSFSSYTMSWVRQAPGKGLEWVSAISGGGRDIYYPDSVKGRFTISRDNSKNTLYLQMNSLRAEDTAVYYCVLLTGRVYFALDSWGQGTLVTVSSASTKGPSVFPLAPSSKSTSGGTAALGCLVKDYFPEPVTVSWNSGALTSGVHTFPAVLQSSGLYSLSSVVTVPSSSLGTQTYICNVNHKPSNTKVDKKV[sequence of human IgG1 Fc with changes omitted]GGSGGGGSGGGGSGGDCDIEGKDGKQYKSVLMVSIDQLLDSMKEIGSNCLNNEFNFFKRHICDANKEGMFLFRAARKLRQFLKMNSTGDFDLHLLKVSEETTILLNCTGQVKGRKPAALGEAQPTKSLEENKSLKEQKKLNDLCFLKRLLQEIKTCWNKILMGTKEH
notes: Immunoconjugate: anti-PD-1 IgG1 (FV020519), knob-into-hole, PGLALA; IL-7 variant fused to the C-terminus of the knob heavy chain; Several batches of the same construct were tested; the batch is named in the rows; also called P1AI5587-007 (transient); P1AI5587-270 (transient)
- Relative Active Concentration (RAC), binding relative to the non-stressed sample [1]: 114%
- Relative Active Concentration (RAC), binding relative to the non-stressed sample [2]: 114%
- Cis-delivery: fold increase in EC50, EC50 [with PD1bl]/EC50 [no PD1bl] (batch P1AI5587-270, transient) [3]: 118 fold
- Cis-delivery: fold increase in EC50, EC50 [with PD1bl]/EC50 [no PD1bl] (batch P1AI5587-468, stable) [3]: 80.6 fold
- Potency reduction to PD1-IL7wt: EC50 (PD1+)/EC50 (PD1-IL7wt) (batch P1AI5587-270, transient) [4]: 16.7 fold
- Potency reduction to PD1-IL7wt: EC50 (PD1+)/EC50 (PD1-IL7wt) (batch P1AI5587-468, stable) [4]: 6.1 fold
- Relative Active Concentration (RAC), binding relative to the non-stressed sample [5]: 108%
- fold reduction in binding compared to P1AF7303 [6]: 29.7 fold
- Relative Active Concentration (RAC), binding relative to the non-stressed sample [7]: 100%
